Hit rate of the full screen: of about 360,000 compounds, about 16,000 (4.4%) were called active. The inconclusive results got no clear call from the source; some entries with a clear call stand among them for comparison. Calls follow the shape of the dose curve; as a rule, active = well fitted inhibition curve with a large enough effect; inconclusive = small, poorly fitted or top-dose-only effect; inactive = no such curve, though single readings can be large or run the other way. Potencies beside an inconclusive call are fits to weak or partial responses and may not hold up.
target: Bromodomain adjacent to zinc finger domain protein 2B (Homo sapiens) (UniProt Q9UIF8); assay: qHTS Assay for Inhibitors of BAZ2B; details: AlphaScreen BAZ2B-H3K14Ac peptide displacement; activity change, negative = inhibition: at 114 µM (top of the series) unless noted; also: nearly all actives have a fitted effect of over 60% in size
In short: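 AlphaScreen displacement: compounds (up to 110uM) incubated 30 min at room temperature with a preformed 50 nM BAZ2B/50 nM biotinylated H3K14Ac peptide complex in PBS pH 7.4 with Tween-20. Donor and acceptor beads at 10 ug/mL final added, 20 min light-protected before reading.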
% is scaled to controls: 0 for no effect and ±100 for the full control effect; potency is read from the fitted curve at half-maximal effect; tags tell the direction and shape of the fitted curve.

UniProt Q9UIF8, sequence (Q9UIF8 whole entry, looked up, the tested form may be a part): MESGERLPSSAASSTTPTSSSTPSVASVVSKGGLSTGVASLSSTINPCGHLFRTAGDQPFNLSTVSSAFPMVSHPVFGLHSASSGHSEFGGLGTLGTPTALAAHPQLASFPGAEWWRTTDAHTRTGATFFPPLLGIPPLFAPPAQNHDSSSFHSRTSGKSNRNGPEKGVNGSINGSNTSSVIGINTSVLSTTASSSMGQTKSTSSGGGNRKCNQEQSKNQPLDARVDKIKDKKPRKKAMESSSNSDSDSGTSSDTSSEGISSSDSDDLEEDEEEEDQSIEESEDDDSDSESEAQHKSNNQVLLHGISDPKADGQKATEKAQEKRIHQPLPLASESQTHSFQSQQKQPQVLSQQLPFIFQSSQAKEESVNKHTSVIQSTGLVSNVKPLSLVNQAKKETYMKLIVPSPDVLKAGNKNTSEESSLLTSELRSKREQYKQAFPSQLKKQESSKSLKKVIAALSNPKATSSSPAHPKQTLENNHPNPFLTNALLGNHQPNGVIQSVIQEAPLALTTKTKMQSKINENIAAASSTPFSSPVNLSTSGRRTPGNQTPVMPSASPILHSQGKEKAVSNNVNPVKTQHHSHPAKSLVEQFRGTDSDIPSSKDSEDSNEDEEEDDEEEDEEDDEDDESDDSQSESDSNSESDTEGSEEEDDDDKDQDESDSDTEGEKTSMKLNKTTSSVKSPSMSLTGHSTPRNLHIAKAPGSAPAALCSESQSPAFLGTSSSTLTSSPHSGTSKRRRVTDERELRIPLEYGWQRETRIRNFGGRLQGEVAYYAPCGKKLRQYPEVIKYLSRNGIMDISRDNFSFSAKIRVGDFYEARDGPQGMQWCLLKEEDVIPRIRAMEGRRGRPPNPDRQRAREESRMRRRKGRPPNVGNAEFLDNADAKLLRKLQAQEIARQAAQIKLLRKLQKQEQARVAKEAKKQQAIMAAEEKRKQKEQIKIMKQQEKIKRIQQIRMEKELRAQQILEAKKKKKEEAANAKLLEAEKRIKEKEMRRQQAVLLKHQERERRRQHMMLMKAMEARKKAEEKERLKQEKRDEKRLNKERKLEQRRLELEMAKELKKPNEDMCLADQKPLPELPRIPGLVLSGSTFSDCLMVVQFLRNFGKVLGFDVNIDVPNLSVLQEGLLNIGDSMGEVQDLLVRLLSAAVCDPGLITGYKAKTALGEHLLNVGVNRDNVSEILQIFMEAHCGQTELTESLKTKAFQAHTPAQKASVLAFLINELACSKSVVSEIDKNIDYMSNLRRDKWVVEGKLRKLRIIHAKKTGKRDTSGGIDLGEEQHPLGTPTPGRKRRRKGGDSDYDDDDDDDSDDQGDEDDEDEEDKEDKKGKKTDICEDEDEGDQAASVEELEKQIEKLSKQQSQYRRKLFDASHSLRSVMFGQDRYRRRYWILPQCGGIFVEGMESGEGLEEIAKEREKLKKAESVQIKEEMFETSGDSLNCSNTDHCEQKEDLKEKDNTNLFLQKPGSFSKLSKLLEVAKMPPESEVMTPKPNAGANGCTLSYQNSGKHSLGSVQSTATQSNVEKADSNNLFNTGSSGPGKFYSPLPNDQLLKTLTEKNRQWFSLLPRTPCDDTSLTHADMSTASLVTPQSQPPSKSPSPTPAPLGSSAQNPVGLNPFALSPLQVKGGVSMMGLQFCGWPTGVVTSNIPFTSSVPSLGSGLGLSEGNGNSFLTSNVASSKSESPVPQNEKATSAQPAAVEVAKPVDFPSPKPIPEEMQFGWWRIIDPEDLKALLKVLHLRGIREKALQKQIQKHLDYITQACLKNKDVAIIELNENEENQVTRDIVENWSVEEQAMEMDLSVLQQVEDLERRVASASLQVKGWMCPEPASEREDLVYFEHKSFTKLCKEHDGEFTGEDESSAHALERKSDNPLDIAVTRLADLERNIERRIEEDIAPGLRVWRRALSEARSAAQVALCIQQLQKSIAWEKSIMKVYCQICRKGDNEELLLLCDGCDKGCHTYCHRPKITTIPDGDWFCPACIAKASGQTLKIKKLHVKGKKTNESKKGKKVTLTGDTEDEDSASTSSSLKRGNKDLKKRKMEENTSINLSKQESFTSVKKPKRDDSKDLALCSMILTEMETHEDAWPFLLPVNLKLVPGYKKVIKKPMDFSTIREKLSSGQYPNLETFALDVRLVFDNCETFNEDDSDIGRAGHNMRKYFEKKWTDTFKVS

SMILES | Potency | activity change, negative = inhibition
COc1ccc(-n2c(O)c(/C=N/NS(=O)(=O)c3ccc(C)cc3)c3ccccc3c2=O)cc1OC | inconclusive: 39.8 µM [inhibitor, partial curve] | 
O=C(O)c1c(C(=O)N2N=C3/C(=C/c4ccccc4)CCCC3C2c2ccccc2)cccc1[N+](=O)[O-] (stereo not drawn) | inconclusive: 70.8 µM [inhibitor, single point] | 
CCOc1ccc(C(C(=O)NC2CCCCC2)N(C(=O)c2ccccn2)c2cccnc2)cc1 (stereo not drawn) |  | inactive: -15.7%
O=C(/C=C/c1cccc(Cl)c1)Nn1c(-c2cccs2)nc2ccccc2c1=O |  | inactive: 5.47%
CC(C)CN(C(=O)COC(=O)c1cccn1C)c1c(N)n(Cc2ccccc2)c(=O)[nH]c1=O |  | inactive: -25.4%
O=C(NCc1ccccc1)c1ccc2c(c1)N(Cc1ccc(F)cc1)CCS2 |  | inactive: -15.6%
CC(=O)Nc1ccc2nc(SCC(=O)Nc3ccc(N4CCOCC4)c(Cl)c3)sc2c1 | active: 11.2 µM | 
COC(=O)c1ccc(NC(=O)NC(C)c2c(-n3cccc3)sc(C)c2C)cc1 (stereo not drawn) | inconclusive: 44.7 µM [inhibitor, partial curve] | 
N#CC1=C(N)Oc2c(ccc3ccccc23)C1c1cccs1 (stereo not drawn) | inconclusive: 70.8 µM [inhibitor, single point] | 
O=C1OC2(CCCCC2)OC(=O)C1=CNc1nc2ccccc2s1 | inconclusive: 6.31 µM [inhibitor, single point] | 
Cc1cc(N2CCCCC2)ccc1[N+](=O)[O-] | inconclusive: 44.7 µM [inhibitor, partial curve] | 
CC1(C)CC(NS(=O)(=O)c2ccc(C(C)(C)C)cc2)CC(C)(C)N1 |  | inactive: -20.2%
C/C(CC1CC(C)OC1=O)=N\NC(N)=S (stereo not drawn) | inconclusive: 79.4 µM [inhibitor, single point] | 
CCC(=O)Nc1ccccc1-c1nc2ccccc2n(CC(=O)Nc2ccc(C)c(C)c2)c1=O |  | inactive: -15.9%
C=CCN(CC=C)C(=O)C(=O)c1cc(C)n(-c2ccc([N+](=O)[O-])cc2)c1C | inconclusive: 50.1 µM [inhibitor, partial curve] | 
COc1ccccc1NC(=O)CSc1nnc(Cc2cccn2C)n1-c1ccc(F)cc1 | inconclusive: 50.1 µM [inhibitor, partial curve] | 
O=C(Cn1ncc2c3ccccc3n(Cc3ccccc3)c2c1=O)NCCCN1CCCCC1 |  | inactive: -12.4%
COc1cccc(N2C(=O)[C@H]3C(C(=O)c4cnccn4)=NN[C@H]3C2=O)c1 | active: 50.1 µM | 
CCN(CC)c1ccc(NS(=O)(=O)c2ccc(OC)cc2)cc1 | active: 39.8 µM | 
c1ccc2c(c1)oc1c(Nc3ccc4c(c3)OCO4)ncnc12 | inconclusive: 89.1 µM [inhibitor, single point] | 
CCOc1ccccc1CNS(=O)(=O)c1ccc2c(c1)oc(=O)n2C |  | inactive: 8.64%
CSC1=C(C#N)C(=O)NC(c2ccc(Cl)cc2)S1 (stereo not drawn) | inconclusive: 100 µM [inhibitor, single point] | 
O=C(O)CCc1ccc(-c2ccc(Br)cc2)n1CC(=O)O | inconclusive: 89.1 µM [inhibitor, single point] | 
CCOc1ccccc1-c1nc2c([nH]1)c(=O)n(C)c(=O)n2C |  | inactive: 5.23%
COc1ccccc1N1CCN(Cc2nc(-c3cc(OC)c(OC)c(OC)c3)no2)CC1 | inconclusive: 70.8 µM [inhibitor, partial curve] | 

SMILES | Potency | activity change, negative = inhibition
COc1ccccc1C1C(C(=O)Nc2ccccc2)=C(C)Nc2nc(-c3ccccc3)nn21 (stereo not drawn) |  | inactive: 2.31%
Cc1ccc2c(c1)C1CN(C)CCC1N2S(=O)(=O)c1ccc(Oc2ccc([N+](=O)[O-])cc2)cc1 (stereo not drawn) | inconclusive: 10 µM [inhibitor, full curve] | 
c1ccc(-c2ccccc2OCCCCN2CCCCC2)cc1 | active: 79.4 µM | 
O=C(C1=C(O)C(=O)N(c2ncccn2)C1c1cccc(Cl)c1)c1ccco1 (stereo not drawn) | inconclusive: 89.1 µM [inhibitor, single point] | 
COc1cccc(-n2nnnc2SCC(=O)NC2CCCCC2)c1 | inconclusive: 89.1 µM [inhibitor, single point] | 
CCN(CC)S(=O)(=O)c1nnc(NC(=O)c2ccc(C)cc2)s1 | inconclusive: 2.51 µM [inhibitor, full curve] | 
O/C(=C\c1nc2ccccc2nc1/C=C(\O)c1ccccc1)c1ccccc1 | active: 4.47 µM | 
CN(C)c1ccc(-n2cccc2/C=C/[N+](=O)[O-])cc1 | active: 15.8 µM | 
Cc1ccc(C(C(=O)NCC2CCCO2)N(Cc2ccccc2)C(=O)c2ccc(-c3ccccc3)[nH]2)o1 (stereo not drawn) | active: 39.8 µM | 
NCCCC[C@@H](C(=O)N1CCNCC1)n1cc(CCC(=O)O)nn1 | inconclusive: 89.1 µM [inhibitor, single point] | 
NNc1ccc(Cc2ccc(Cl)cc2Cl)nn1 | active: 2.82 µM | 
Cc1sc2ncnc(SCC(=O)NC(=O)NCc3ccco3)c2c1C | inconclusive: 70.8 µM [inhibitor, single point] | 
COC(=O)c1nnn(CC(=O)NC(=O)Nc2cccc(Cl)c2C)c1C(=O)OC |  | inactive: 0.341%
CC1CC(C)(C)N2C(=O)C3(Nc4ccccc4S3)c3cccc1c32 (stereo not drawn) | active: 50.1 µM | 
O=C(CNC(=O)c1ccc(F)cc1)N/N=C/c1cccnc1 |  | inactive: 9.62%
Cc1cccc(CN2C(=O)c3ccccc3Sc3ccc(C(=O)NCCCN4CCOCC4)cc32)c1 | inconclusive: 22.4 µM [inhibitor, full curve] | 
CC(=O)/C(=N/Nc1cccc(Cl)c1)N1CCOCC1 | inconclusive: 89.1 µM [inhibitor, single point] | 
CC1(C)CC(=O)C2=C(C1)C(c1cn(-c3ccccc3)nc1-c1ccccc1)C(C#N)=C(N)O2 (stereo not drawn) | inconclusive: 56.2 µM [inhibitor, single point] | 
CSc1nnc(C)c(/C=C/Nc2ccc(F)cc2F)n1 | inconclusive: 79.4 µM [inhibitor, single point] | 
CC(C)c1ccc(CN(C)C(=O)c2ccc(S(=O)(=O)NCc3ccco3)cc2)cc1 | inconclusive: 89.1 µM [inhibitor, single point] | 
Cc1cc(NC(=O)COC(=O)COc2ccc(Cl)cc2C)c([N+](=O)[O-])cc1C | inconclusive: 17.8 µM [inhibitor, full curve] | 
COc1ccc(NC(=O)CC(C)C)c([N+](=O)[O-])c1 | inconclusive: 89.1 µM [inhibitor, single point] | 
CCc1nnc(NS(=O)(=O)c2ccc(NC(=O)/C=C/C(=O)O)cc2)s1 | inconclusive: 89.1 µM [inhibitor, single point] | 
Cn1cccc1/C=N/NC(=O)c1cc2ccccc2cc1O | active: 28.2 µM | 
CCC(=O)NC(c1cccs1)c1cc([N+](=O)[O-])c2cccnc2c1O (stereo not drawn) | active: 7.94 µM | 

SMILES | Potency | activity change, negative = inhibition
CCc1cccc(C)c1Nc1c(-c2ccc(N(C)C)cc2)nc2cnccn12 | active: 15.8 µM | 
N#Cc1cn(CC(=O)O)c2ccccc12 | inconclusive: 89.1 µM [inhibitor, single point] | 
COc1ccc(-c2nc3ccccc3s2)cc1NC(=O)c1cccc(F)c1 | inconclusive: 89.1 µM [inhibitor, single point] | 
CC1(c2ccc3c(c2)OCO3)NC(=O)N(CC(=O)Nc2ccc(N3CCOCC3)cc2)C1=O (stereo not drawn) | inconclusive: 89.1 µM [inhibitor, single point] | 
Cc1cc(C)cc(NC(=S)N(CCN2CCCCC2)Cc2ccco2)c1 | inconclusive: 50.1 µM [inhibitor, partial curve] | 
CSCCCNC(=S)Nc1ccc(N2CCOCC2)cc1 | inconclusive: 70.8 µM [inhibitor, single point] | 
Cc1ccc(-c2nc(CS(=O)(=O)CC(=O)N3CCN(c4ccccc4)CC3)c(C)o2)cc1 | active: 56.2 µM | 
CCCCCCNC(=O)CC(c1ccccc1)c1cc(Br)ccc1O (stereo not drawn) |  | inactive: 37%
Cc1cccc2cc(C(c3nnnn3C(C)(C)C)N(Cc3ccco3)CC3CCCO3)c(=O)[nH]c12 (stereo not drawn) | active: 50.1 µM | 
CCCn1cnc2cc(NCc3cccs3)ccc21 | inconclusive: 79.4 µM [inhibitor, single point] | 
Cc1cc(-c2ccc(C)c(S(=O)(=O)NCCc3ccco3)c2)on1 |  | inactive: -36.3%
CCCSCCCNC(=O)c1sc2nc(C)cc(C)c2c1-n1cccc1 | inconclusive: 89.1 µM [inhibitor, single point] | 
CCc1cccc(C)c1NC(=O)COC(=O)C1CCN(S(=O)(=O)c2ccccc2)CC1 | inconclusive: 39.8 µM [inhibitor, single point] | 
CCCc1cc(=O)[nH]c(SCc2nc(-c3ccccc3)no2)n1 |  | inactive: -3.09%
COc1ccccc1N=Nc1ccc(O)c2ncccc12 | active: 20 µM | 
C=C(C)c1cccc(C(C)(C)NC(=O)NC2CC(C)(C)NC(C)(C)C2)c1 |  | inactive: -1.93%
O=C(CSc1nnc(-c2ccccc2F)o1)NC1CCCCC1 |  | inactive: 8.83%
CCCCCCSc1nnc2[nH]c(=O)cc(N)n12 |  | inactive: 1.28%
CCc1nn(-c2ccccc2)c2c1-c1cc(OC)c(OC)cc1C1(N2)C(=O)Nc2ccccc21 (stereo not drawn) | inconclusive: 89.1 µM [inhibitor, single point] | 
CCOC(=O)Cc1nnc(NC(=O)COc2ccc(C)cc2)s1 | inconclusive: 79.4 µM [inhibitor, single point] | 
CCOc1ccc(-n2ccnc(SCC(=O)Nc3cccc(OC)c3)c2=O)cc1 | inconclusive: 89.1 µM [inhibitor, single point] | 
COc1cccc(CNCc2ccc(SC)cc2)c1OC | inconclusive: 100 µM [inhibitor, single point] | 
O=C(NC1CCCCCCC1)C1CCCN(S(=O)(=O)c2cnc[nH]2)C1 (stereo not drawn) |  | inactive: -0.354%
